# PMC4336329 (PLoS ONE, 2015)
# About 14,000 (4.5%) of roughly 310,000 compounds showed an effect of 50% or more. Effects have a minus sign here. Some of the results follow.
# Target: human ether-à-go-go-related gene (hERG) potassium channel (human, UniProt Q12809)
# Experiment: primary screen, population patch clamp on CHO cells stably expressing hERG
# 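Also: peak tail current of the secondary pulse compared with the same well before compound.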
# Sequence of human ether-à-go-go-related gene (hERG) potassium channel (Q12809 whole entry, looked up): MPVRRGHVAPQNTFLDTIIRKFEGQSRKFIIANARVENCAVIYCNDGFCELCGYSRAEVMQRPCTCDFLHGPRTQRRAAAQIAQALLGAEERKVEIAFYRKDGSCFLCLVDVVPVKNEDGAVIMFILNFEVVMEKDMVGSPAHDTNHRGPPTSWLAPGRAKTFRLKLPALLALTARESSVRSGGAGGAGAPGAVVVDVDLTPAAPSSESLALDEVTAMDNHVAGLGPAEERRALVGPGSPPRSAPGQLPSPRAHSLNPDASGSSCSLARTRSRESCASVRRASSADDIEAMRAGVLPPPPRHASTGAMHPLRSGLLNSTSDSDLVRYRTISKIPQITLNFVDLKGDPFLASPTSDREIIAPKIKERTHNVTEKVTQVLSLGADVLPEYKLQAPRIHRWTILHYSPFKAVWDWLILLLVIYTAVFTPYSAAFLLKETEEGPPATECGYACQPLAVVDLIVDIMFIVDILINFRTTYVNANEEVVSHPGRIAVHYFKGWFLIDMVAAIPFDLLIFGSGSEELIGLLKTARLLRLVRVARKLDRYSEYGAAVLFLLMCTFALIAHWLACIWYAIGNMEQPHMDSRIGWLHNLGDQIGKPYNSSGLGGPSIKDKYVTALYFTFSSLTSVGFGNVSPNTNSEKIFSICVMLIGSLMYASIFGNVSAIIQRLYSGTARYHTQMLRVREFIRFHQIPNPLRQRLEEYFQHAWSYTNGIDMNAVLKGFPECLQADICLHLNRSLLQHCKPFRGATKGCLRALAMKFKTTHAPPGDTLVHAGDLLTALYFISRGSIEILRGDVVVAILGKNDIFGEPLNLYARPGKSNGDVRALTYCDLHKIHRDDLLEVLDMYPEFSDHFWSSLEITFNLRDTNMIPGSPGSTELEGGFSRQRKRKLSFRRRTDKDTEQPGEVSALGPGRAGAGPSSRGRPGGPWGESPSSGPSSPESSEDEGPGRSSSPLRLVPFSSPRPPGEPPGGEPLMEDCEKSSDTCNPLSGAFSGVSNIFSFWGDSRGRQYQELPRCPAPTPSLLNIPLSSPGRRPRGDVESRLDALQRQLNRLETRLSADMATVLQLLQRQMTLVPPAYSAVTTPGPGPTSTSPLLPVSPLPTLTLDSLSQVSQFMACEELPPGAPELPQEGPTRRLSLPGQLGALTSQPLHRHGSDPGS
row,Compound,"hERG current change (%, negative = inhibition) at 10uM [%]"
1,O=C(c1ccco1)N1CCN(C(=O)C2CCCO2)CC1 (stereo not shown),11.7
2,COc1ccc(NC(=O)CNC(=O)Cc2ccccc2)cc1,22.2
3,O=C(Nc1ccccc1Br)c1c(F)cccc1Cl,-3.35
4,CCOC(=O)N1CCN(C(=O)/C(=C\c2ccc(SC)cc2)NC(=O)c2ccccc2)CC1,-78.5
5,Cc1cccc(NC(=O)CSc2nnc(CNC(=O)c3ccco3)o2)c1,8.53
6,Cc1cccc2cc(CN(CC3CCCO3)C(=S)Nc3ccccc3)c(=O)[nH]c12 (stereo not shown),2.39
7,Nn1c(Cc2cccc3ccccc23)nnc1SCCOc1ccc(Br)cc1,-3.65
8,Cc1cc(C(=O)O)ccc1-c1ccc(/C=C2\NC(=O)N(Cc3ccccc3Cl)C2=O)o1,19
9,COc1ccc(NS(=O)(=O)c2ccc(N3CCOCC3)c(NC(=O)c3ccccc3Br)c2)cc1,-11.2
10,CN(C)c1ncc(S(=O)(=O)c2ccc(Cl)cc2)c(-c2ccccc2)n1,-6.65
11,Cc1cccc(C(=O)NC2CCN(CC(=O)Nc3ccccc3Cl)CC2)c1,-49
12,Clc1ccc(CSc2nnc(/C=C/c3ccccc3)o2)c(Cl)c1,14.4
13,Cc1cc(C(=O)COC(=O)/C=C/c2ccc(F)cc2)c(C)n1C,4.57
14,Cc1cccc(N2CCN(c3ccc(NC(=O)/C=C\C(=O)O)cc3)CC2)c1,27.5
15,CC(Sc1nncn1C)C(=O)Nc1ccc(N2CCCCC2)cc1 (stereo not shown),26.9
16,CN1CCCN(Cc2nc(-c3cccc(C(F)(F)F)c3)no2)CC1,-60.2
17,Cc1c(NC(=O)C(C)OC(=O)c2ccc(NC(=O)CC#N)cc2)c(=O)n(-c2ccccc2)n1C (stereo not shown),1.74
18,COC(=O)c1cc(Cl)c(NC(=O)/C=C/c2ccc(Cl)cc2)cc1OC,-15.7
19,COc1ccc2c(c1)sc(=N)n2CC(=O)Nc1cc(C)cc(C)c1,-6.95
20,O=C(Nc1ccc(F)cc1)Nc1cccnc1,-19.9
21,COc1ccccc1NC(=O)Nc1nn(C)c2cccc(OC)c12,2.03
22,CC(O)(CS(=O)(=O)c1ccc(Br)cc1)c1ccccc1 (stereo not shown),20.8
23,NS(=O)(=O)c1ccc(CNC(=S)NC2CC2)cc1,2.67
24,O=C(NNC(=O)C1CCCO1)c1ccc(Br)cc1 (stereo not shown),5.24
25,Cc1cccc(N2CCN(C(=O)NC3CCCCC3)CC2)c1C,1.11
